# According to article PMC4336329 (PLoS ONE, 2015):
# Out of some 310,000 compounds screened, about 2,200 (0.71%) showed an effect of 50% or more. Effects have a minus sign here. Some of the results follow.
# Target: human ether-à-go-go-related gene (hERG) potassium channel (human, UniProt Q12809)
# Assay: primary screen, population patch clamp on CHO cells stably expressing hERG
# human ether-à-go-go-related gene (hERG) potassium channel, sequence (Q12809 whole entry, looked up): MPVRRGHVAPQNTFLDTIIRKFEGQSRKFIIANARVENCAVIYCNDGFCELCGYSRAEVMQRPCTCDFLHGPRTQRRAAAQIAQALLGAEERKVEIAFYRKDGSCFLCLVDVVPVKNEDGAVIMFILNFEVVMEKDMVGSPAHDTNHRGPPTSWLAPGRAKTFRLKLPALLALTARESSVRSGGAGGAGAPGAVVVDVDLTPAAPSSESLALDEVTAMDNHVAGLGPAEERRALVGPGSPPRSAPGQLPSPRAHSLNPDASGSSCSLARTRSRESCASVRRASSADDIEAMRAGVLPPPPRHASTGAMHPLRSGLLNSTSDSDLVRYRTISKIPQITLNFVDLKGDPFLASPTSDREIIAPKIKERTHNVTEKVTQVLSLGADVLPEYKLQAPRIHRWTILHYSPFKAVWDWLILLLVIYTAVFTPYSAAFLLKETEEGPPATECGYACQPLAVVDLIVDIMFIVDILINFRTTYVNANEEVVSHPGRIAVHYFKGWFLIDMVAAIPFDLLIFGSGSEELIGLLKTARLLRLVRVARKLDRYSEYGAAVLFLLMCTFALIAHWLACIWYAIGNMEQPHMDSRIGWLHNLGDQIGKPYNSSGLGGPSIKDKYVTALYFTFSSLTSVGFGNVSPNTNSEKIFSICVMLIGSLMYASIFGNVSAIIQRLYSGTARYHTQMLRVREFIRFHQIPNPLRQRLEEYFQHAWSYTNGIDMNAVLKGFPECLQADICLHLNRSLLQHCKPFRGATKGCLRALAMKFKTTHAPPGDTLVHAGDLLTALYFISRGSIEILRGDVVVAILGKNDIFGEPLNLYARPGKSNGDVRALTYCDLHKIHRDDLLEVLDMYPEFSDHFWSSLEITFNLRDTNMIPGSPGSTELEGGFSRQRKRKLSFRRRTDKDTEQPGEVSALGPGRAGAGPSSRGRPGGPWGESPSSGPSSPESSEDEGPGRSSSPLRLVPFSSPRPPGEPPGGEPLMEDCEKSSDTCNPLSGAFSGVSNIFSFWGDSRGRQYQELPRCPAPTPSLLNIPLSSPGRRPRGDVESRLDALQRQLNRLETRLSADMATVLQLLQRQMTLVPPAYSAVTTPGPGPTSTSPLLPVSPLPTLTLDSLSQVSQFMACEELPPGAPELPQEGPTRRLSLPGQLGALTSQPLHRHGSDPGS
row,Compound,"hERG current change (%, negative = inhibition) at 1uM [%]"
1,CCOC(=O)N1CCN(c2ncc(C(F)(F)F)cc2Cl)CC1,19.2
2,CC(C)OC(=O)CC1C(=O)NCCN1C(=S)NC(=O)c1ccccc1 (centres unmarked),7.78
3,CN(c1ncc(C(F)(F)F)cc1Cl)N1C(=O)C2ONC3(C(=O)CC(C)(C)CC3=O)C2C1=O (centres unmarked),10.3
4,CCc1cccc(C)c1NC(=O)COC(=O)c1ccc2c(c1)S(=O)(=O)c1ccccc1C2=O,-5.35
5,CC(C)Cc1ccc(/C=C/C(=O)N2CCCCC2)cc1,9.33
6,CN(C(=S)Nc1ccc(SC(F)F)cc1)c1ccc(O)cc1,7.76
7,COc1ccc(CCC(=O)NCC2CCCCC2)cc1OC,11.8
8,Cc1ccc(C)c(NC(=O)C2CC(O)CN2C(=O)OCc2ccccc2)c1 (centres unmarked),2.34
9,Cc1c(C(=O)NNC(=O)c2ccncc2)oc2ccccc12,5.93
10,O=S(=O)(c1ccccc1)N1CCC(n2cnc3ccccc32)CC1,-27.2
11,COc1ccc2c(c1)CCc1c(C(=O)N(C)c3ccccc3)noc1-2,12.1
12,Cc1ccc(C(=O)OCC(=O)NNC(=O)c2cccs2)c(O)c1,15.6
13,Cc1cc(C)n(C(=O)c2cc(F)c(F)cc2C)n1,-5.43
14,COc1cc(C(=O)NC(=S)Nc2ccccc2[N+](=O)[O-])cc(OC)c1OC,9.67
15,FC(F)(F)c1cccc(Cc2noc(CN3CCCC(CN4CCCC4)C3)n2)c1 (centres unmarked),-14
16,COc1ncccc1C(=O)N1CCCC(C(=O)c2cccc(OC(C)C)c2)C1 (centres unmarked),5.3
17,O=C(Nc1nc2ccccc2n1CCN1CCOCC1)c1ccccc1,9.95
18,CCN1CCN(CCCNC(=O)c2ccc(/C=C3/Oc4ccccc4N(Cc4cccc(C)c4)C3=O)cc2)CC1,15
19,CN(CCOc1ccccc1)C(=O)C1CCN(C(=O)c2ccc(Cl)cc2)CC1,-9.82
20,Nc1nc(COC(=O)C2CC(=O)N(Cc3ccccc3)C2)nc(Nc2ccccc2)n1 (centres unmarked),-6.95
21,C/C(=N/N=C1\SCC(=O)N1c1ccccc1)c1ccc(C)cc1,16.6
22,CCOC(=O)N1CCN(C2CCCN(C(=O)c3ccccc3N(C)C)C2)CC1 (centres unmarked),12.3

row,Compound,"hERG current change (%, negative = inhibition) at 1uM [%]"
1,Cc1ccc(NC(=O)C2CCCN2S(=O)(=O)c2ccc3c(c2)n(C)c(=O)c(=O)n3C)cc1 (centres unmarked),0.652
2,CCSc1nnc(NC(=O)c2cccc(OCc3c(C)noc3C)c2)s1,6.83
3,COc1ccc(-c2nsc3c(N4CCCCC4)ncnc23)cc1,-0.389
4,O=C(NC1CCSC1=O)c1cccc(C(=O)NC2CCSC2=O)c1 (centres unmarked),3.01
5,CCCCC(=O)N/N=C/c1c(O)n(CC)c(=S)[nH]c1=O,8.95
6,Cc1nn(Cc2ccccc2)c(C)c1C(=O)Nc1ccc(N2CCOCC2)cc1,11.8
7,O=C(OCC(=O)N1CCN(c2ccccc2)CC1)c1cccs1,5.96
8,Cc1ccc(-c2csc(NC(=O)C3CC(=O)N(Cc4ccco4)C3)n2)cc1 (centres unmarked),-2.47
9,O=C(COc1ccccc1C(=O)O)NC1CCCc2ccccc21 (centres unmarked),8.24
10,COCCNC(=O)C(=O)Nc1cccc(Br)c1,11.6
11,COc1ccc(NC(=O)CSc2nc3[nH]ncc3c(=O)n2-c2ccccc2OC)cc1OC,18
12,O=C(CCCc1c[nH]c2ccccc12)Nc1ncccc1O,11
13,COCCCn1c(Cc2csc(Nc3cccc(Cl)c3)n2)nnc1SCC(=O)OC,-8.9
14,CCOC(=O)c1cc2ccc3ccccc3c2oc1=O,11.2
15,Cc1cc(C)cc(OCC(=O)N(Cc2cccs2)C2CCS(=O)(=O)C2)c1 (centres unmarked),-0.223
16,CC1CCCN(S(=O)(=O)c2ccc(CN3C(=O)c4cccnc4C3=O)cc2)C1 (centres unmarked),-3.88
17,CCOc1ccc(/C=C2/SC(=O)NC2=S)cc1,7.86
18,COC(=O)c1ccc(N2C(=O)CC(N3CCN(c4ccccc4)CC3)C2=O)cc1 (centres unmarked),5.4
19,COCCCNCCCCOc1ccc(Br)cc1C.O=C(O)C(=O)O,-24
20,O=C(c1ccc(S(=O)(=O)N2CCCC2)cc1)N1CCC(CN2C(=O)c3cccc4cccc(c34)C2=O)CC1,11.9
21,COC(=O)c1cn(Cc2cc(OC)ccc2OC)cc(F)c1=O,15.5
22,Cc1ccc2[nH]c(C)c(CCNCc3ccco3)c2c1.Cl,16
